# Where “and” joins values, the source holds several entries; their conditions need not be identical. Equal values may be shown once. In all, about 110,000 compounds were measured (“z-score”: median about -0.1, highest 2% from about 2 on). The list shows a part of the results. Calls of active or inactive are those of the source.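 The calls were made as follows: active = z-score in the third read window above 3 or below -3; inactive = the rest.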
# Target: Metabotropic glutamate receptor 8 (Rattus norvegicus) (UniProt P70579)
# Assay: rat mGluR8 modulators via GIRK flux, primary screen, cell-based, thallium flux, HTS (AID 488969)
# Conditions: HEK293 rat mGluR8, GIRK (G protein-gated inwardly rectifying potassium channel) thallium flux, FluoZin2; at 10 µM; stronger effect = higher value; submaximal glutamate (EC20) added with thallium
# Sequence of UniProt P70579 (P70579 whole entry, looked up): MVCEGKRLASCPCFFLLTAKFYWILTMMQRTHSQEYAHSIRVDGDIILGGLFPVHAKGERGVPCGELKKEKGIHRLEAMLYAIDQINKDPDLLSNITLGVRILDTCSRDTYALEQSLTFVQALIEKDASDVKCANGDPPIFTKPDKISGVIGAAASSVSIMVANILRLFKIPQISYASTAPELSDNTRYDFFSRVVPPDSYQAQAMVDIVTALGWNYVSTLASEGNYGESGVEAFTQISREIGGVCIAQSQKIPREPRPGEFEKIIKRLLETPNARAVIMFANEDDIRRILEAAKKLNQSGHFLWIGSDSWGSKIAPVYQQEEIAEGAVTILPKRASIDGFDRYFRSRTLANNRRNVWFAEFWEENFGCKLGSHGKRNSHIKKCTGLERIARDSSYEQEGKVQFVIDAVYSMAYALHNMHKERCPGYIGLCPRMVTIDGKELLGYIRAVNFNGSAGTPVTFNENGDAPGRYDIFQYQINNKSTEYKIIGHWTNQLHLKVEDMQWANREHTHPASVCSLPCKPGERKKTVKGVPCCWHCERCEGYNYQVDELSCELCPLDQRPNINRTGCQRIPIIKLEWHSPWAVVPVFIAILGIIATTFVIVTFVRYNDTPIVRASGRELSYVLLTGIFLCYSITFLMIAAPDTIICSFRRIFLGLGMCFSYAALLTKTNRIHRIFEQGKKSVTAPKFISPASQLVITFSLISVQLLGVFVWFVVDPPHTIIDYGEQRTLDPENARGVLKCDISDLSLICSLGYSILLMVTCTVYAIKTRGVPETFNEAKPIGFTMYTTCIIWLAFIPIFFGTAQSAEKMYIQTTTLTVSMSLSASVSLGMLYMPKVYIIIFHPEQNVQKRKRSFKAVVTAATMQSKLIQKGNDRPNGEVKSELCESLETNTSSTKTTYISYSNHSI
row,Structure (SMILES),z-score
1,Cc1ccc(OC2=NS(=O)(=O)c3ccccc32)cc1,0.36
2,CC(C)C(c1nnnn1Cc1cccs1)N1CCN(C2CCCC2)CC1 (stereo not given),0.331
3,CN1C(=O)/C(=N\OC(=O)c2cccc3ccccc23)c2ccccc21,-0.497
4,CCOC(=O)C1CCN(C(=O)/C=C/c2ccccc2OC)CC1,-1.49
5,CC(C)[C@H](NC(=O)NC1CCCC1)C(=O)O,-0.243
6,NNC(=S)NCc1ccc2c(c1)OCO2,0.0642
7,CCCOc1cccc(C2/C(=C(/O)c3ccc(OC)cc3)C(=O)C(=O)N2CCN(C)C)c1 (stereo not given),-0.278
8,Clc1ccc(-c2nnc(SCc3nc4ccccc4s3)o2)cc1,-0.00869
9,Cc1ccc(C)c(S(=O)(=O)NCc2ccc(C(=O)NCc3ccccn3)cc2)c1,0.0923
10,O=C(c1ccccc1)c1c[nH]c(C(=O)NCCCn2ccnc2)c1,-0.0473
11,CC1(C)OC(=O)C(=CNn2cnc3ccccc3c2=O)C(=O)O1,0.581
12,CCOC(=O)Cc1[nH]nc2c1C(c1ccoc1)C(C#N)=C(N)O2 (stereo not given),-0.03
13,O=C(Nc1nc(-c2ccccc2)cs1)NC1CCCCC1,-0.0613
14,COc1ccc(-n2ccnc2SCC(=O)NCc2ccc3c(c2)OCO3)cc1,-0.165
15,Cc1cc2c(ncn2C(C)C)c(N)c1C,-0.0549
16,COCCN(C(=O)CSc1nnc(Nc2ccccc2F)s1)c1c(N)n(Cc2ccccc2)c(=O)[nH]c1=O,-0.348
17,CCc1nnc(NC(=O)CSc2nnc(CSc3nc(C)cc(C)n3)n2C)s1,-0.55
18,Cc1cc(C)c(NC(=O)CS(=O)CC(=O)N2CCN(c3ccc(F)cc3)CC2)c(C)c1 (stereo not given),0.349
19,COc1ccc(C)cc1NC(=O)NCCC1=CCCCC1,active: 10.6
20,CC(C)C(=O)NC(=S)Nc1ccc(S(=O)(=O)N2CCN(C)CC2)cc1,0.0813
21,Cc1cccc(NC(=O)CCc2ccc(C)o2)c1,-1.35
22,CCOc1cc2c(cc1OCC)C(c1ccccc1)N(c1ccccc1)C(=O)C2 (stereo not given),-0.705
23,O=C(CCCCCNC(=O)c1ccccc1)N/N=C/c1ccc(O)cc1O,-0.269
24,COc1ccc(-c2csc3nc(C)n(-n4cccc4)c(=O)c23)cc1,-2.01

row,Structure (SMILES),z-score
1,COc1ccc(NC(=O)C2=C(C)NC(=O)NC2c2cccc(OC)c2OC)c(OC)c1 (stereo not given),-0.12
2,CCOc1ccc(S(=O)(=O)N2CCN(c3ccc(C)cc3C)CC2)cc1,-0.178
3,CC1CCc2c(sc(NS(=O)(=O)c3ccccc3)c2C(=O)OC(C)C)C1 (stereo not given),active: 8.13
4,Cc1cc(C)nc(SCCn2c(N(C)Cc3ccccc3)nc3c2c(=O)n(C)c(=O)n3C)n1,-0.583
5,CCOC(=O)Cc1csc(SCc2cc(=O)oc3cc(O)ccc23)n1,-0.133
6,Cc1nc2ccccc2c2oc(C(=O)NC3CC3)cc12,0.106
7,O=C1Nc2ccc(S(=O)(=O)NCc3ccco3)c3cccc1c23,0.198
8,c1ccc(-c2noc(-c3ccccc3-c3ccccc3)n2)cc1,-0.531
9,CCN(CC(O)CON=C1c2ccccc2-c2ccccc21)S(=O)(=O)c1ccc(Cl)cc1 (stereo not given),0.138
10,CCOc1ccc(/C=N/OCC(=O)Nc2ccc(OCc3ccccc3)cc2)cc1OC,-0.11
11,O=C(NCc1ccco1)c1cc2sccc2n1Cc1ccccc1,-1.39
12,CCOC(=O)CC(N)c1ccc(OC)cc1 (stereo not given),-0.127
13,COc1ccc(COC(=O)c2ccc(N3CCCC3=O)cc2)cc1F,-0.423
14,Cc1ccccc1/C=C1\CCCc2ccccc2C1=O,0.174
15,Cn1cnnc1SCCn1c(N2CCCCC2)nc2c1c(=O)[nH]c(=O)n2C,-0.341
16,N=c1c2c(-c3ccccc3)c(-c3ccccc3)n(Cc3ccco3)c2ncn1CCN1CCOCC1,-0.19
17,CCN(CC)CCCN1C(=O)C(O)=C(C(=O)c2ccco2)C1c1ccc(C)o1 (stereo not given),0.0674
18,O=C(NC1=NCCS1)C12CC3CC(C1)CC(C(=O)NC1=NCCS1)(C3)C2,-0.156
19,CCN(CC)CCCNC(=O)c1cc(-c2ccc(Cl)c(Cl)c2)on1,active: 5.37
20,COc1ccc(CNC(=O)c2nnn(Cc3ccc(OC)cc3)c2N)cc1,0.097
21,Cc1ccc2c(c1)cc1c(=O)[nH]ncn12,-0.199
22,CN(C)CCCNC(=O)c1ccc2[nH]c3ccccc3c2c1,1.63
23,Cc1ccc(-c2nc3ccccc3c(=O)n2NC(=S)N(C)C)cc1,-0.153
24,CCOc1ccc(Nc2cc(=O)oc3ccccc23)cc1,-0.368

row,Structure (SMILES),z-score
1,Cc1nn(-c2ccccc2)c(/N=C/c2ccccc2O)c1-c1ccccc1,-0.4
2,Cc1cc(=O)oc2c(C(=O)/C=C/c3ccccc3)c(O)ccc12,-0.495
3,CCCCn1nnnc1SCC(=O)N1CCCC1,-0.385
4,CN1CC2([N+](=O)[O-])CC=C(Oc3ccccc3)C([N+](=O)[O-])(C1)C2 (stereo not given),-0.0972
5,N#Cc1cc(-c2ccc(Cl)cc2)cnc1Sc1ccccc1,0.0512
6,Nc1nc(-c2ccccc2)c(N=Nc2ccc(Cl)cc2)s1,0.141
7,CN=C(Nc1cc(C)nn1-c1ccccc1)c1ccc(F)cc1,-1.36
8,COC(=O)Cn1c(=NC(=O)c2ccc([N+](=O)[O-])s2)sc2cc(Br)ccc21,0.0339
9,CCN(CC)Cc1c(C(=O)OC)nnn1-c1nonc1N,0.958
10,COc1ccc(Cl)cc1N/C(N)=N/c1nc(CSc2ccc(C)cc2)cc(=O)[nH]1,-0.303
11,Cc1cccc(C)c1NC(=O)N1CCC(N2CCCCC2)CC1,-0.792
12,CN(C)CCOC(=O)C1(c2ccccc2)CCOCC1,-0.0616 and 0.489
13,Cc1ccc(-n2c(N)c(C(=O)Nc3c(C)n(C)n(-c4ccccc4)c3=O)c3nc4ccccc4nc32)cc1C,-1.41
14,COc1ccc(-c2nc(-c3cccc([N+](=O)[O-])c3O)cc(=O)o2)cc1OC,1.13
15,COc1cccc(C2C(C#N)=C(N)OC3=C2C(=O)CCC3)c1OC(=O)c1ccco1 (stereo not given),-0.941
16,Cc1cccc2cc(CN(Cc3ccc(F)cc3)Cc3nnnn3C3CCCC3)c(=O)[nH]c12,-0.483
17,N=C1SC(c2ccccc2)C(=O)N1c1ncc(Cc2ccccc2)s1 (stereo not given),0.173
18,CCCCN(CCCNC(=O)C1CCCN(S(=O)(=O)CC)C1)Cc1ccccc1 (stereo not given),0.123
19,CCOC(=O)N1CCN(c2ncnc3c2cnn3-c2ccc(Cl)cc2)CC1,-0.0512
20,COc1ccc(Nc2ncnc3c2cnn3Cc2ccc(C)cc2)cc1,0.267
21,CCOC(=O)CN1C(=O)CN(c2ccc(C)c(C)c2)C1=O,-0.226
22,O=c1n(-c2ccccc2)c(=O)n2n1CCC2,-1.02

# Source: PubChem BioAssay AID488969 (Vanderbilt High Throughput Screening Facility, 2010)
